# Source: the supplement of paper PMC10037445
# ± gives the standard deviation of the averaged measurements. Whole data set: some 2,900 compounds, median “NF-kB SEAP reporter activity, fold change vs agonist alone” near 0.99, cut for the highest 2% near 2.6. The list shows a part of the results.
# Experiments:
# RAW-Dual [1] = experiment: NF-kB SEAP reporter activity, fold change vs agonist alone; cytotoxicity flag (confluency mask): cytotoxic (confluency <70% of control); higher = enhanced NF-kB activity
# Outline: (§1)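 After 50 nL of library stock was delivered by pin tool to RAW-Dual macrophages (50,000 cells/well, DMEM, 384-well plates), a PRR agonist was added 1 h later and the plates were kept at 37 °C, 5% CO2. Twenty hours later, IRF was read from supernatant by QuantiLuc luminescence and NF-κB by QuantiBlue absorbance at 620 nm. Reporter activity is stated as fold change over agonist-alone wells. Wells with IncuCyte confluency under 70% of agonist controls in both mask sets were counted as cytotoxic.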
# RAW-Dual [2] = experiment: NF-kB SEAP reporter activity, fold change vs agonist alone; higher = enhanced NF-kB activity; settings: library stock concentration (final ~1000-fold dilution): 10 mM
# Outline: as §1
# RAW-Dual [3] = experiment: NF-kB SEAP reporter activity, fold change vs agonist alone; cytotoxicity flag (confluency mask): not cytotoxic; higher = enhanced NF-kB activity
# Outline: as §1
# [4] = agonist: ODN 1826 (TLR9) 0.5 ug/mL
# [5] = agonist: Pam2CSK4 (TLR2/6) 0.1 ug/mL
# [6] = agonist: Pam3CSK4 (TLR2/1) 0.1 ug/mL
# [7] = cytotoxicity flag (confluency mask): not cytotoxic, agonist: Imiquimod (TLR7) […]
# [8] = cytotoxicity flag (confluency mask): not cytotoxic, agonist: MPLA (TLR4) […]
structure (smiles),measurement,setting,value
Cc1cnc(Nc2ccc(OCCN3CCCC3)cc2)nc1Nc1cccc(S(=O)(=O)NC(C)(C)C)c1 (library stock concentration (final ~1000-fold dilution): 10 mM),NF-kB SEAP reporter activity,RAW-Dual [1]; agonist: LPS (TLR4) 0.1 ug/mL,4.34
same,NF-kB SEAP reporter activity,RAW-Dual [1]; [4],1.22
same,NF-kB SEAP reporter activity,RAW-Dual [1]; [5],2.05
same,NF-kB SEAP reporter activity,RAW-Dual [1]; [6],3.55
Cc1cnc(Nc2ccc(OCCN3CCCC3)cc2)nc1Nc1cccc(S(=O)(=O)NC(C)(C)C)c1,NF-kB SEAP reporter activity,"RAW-Dual [2]; cytotoxicity flag (confluency mask): cytotoxic (confluency <70% of control), agonist: Imiquimod (TLR7) […]",3.13
same,NF-kB SEAP reporter activity,"RAW-Dual [2]; cytotoxicity flag (confluency mask): cytotoxic (confluency <70% of control), agonist: MPLA (TLR4) […]",2.73
CC(O)CO.CCOc1ccc(Cc2cc(C3OC(CO)C(O)C(O)C3O)ccc2Cl)cc1.O (stereo not given),NF-kB SEAP reporter activity,RAW-Dual [2]; [7],1.11
same,NF-kB SEAP reporter activity,RAW-Dual [2]; [8],1.08
CC(O)CO.CCOc1ccc(Cc2cc(C3OC(CO)C(O)C(O)C3O)ccc2Cl)cc1.O (stereo not given) (library stock concentration (final ~1000-fold dilution): 10 mM),NF-kB SEAP reporter activity,RAW-Dual [3]; agonist: LPS (TLR4) 0.1 ug/mL,1.46
same,NF-kB SEAP reporter activity,RAW-Dual [3]; [4],1.16
same,NF-kB SEAP reporter activity,RAW-Dual [3]; [5],0.996
same,NF-kB SEAP reporter activity,RAW-Dual [3]; [6],1.31
C=C1CCC2C(C)(CO)C(O)CCC2(C)C1C/C=C1/C(=O)OCC1O (stereo not given),NF-kB SEAP reporter activity,RAW-Dual [2]; [7],0.933 ± 0.078
same,NF-kB SEAP reporter activity,RAW-Dual [2]; [8],0.792 ± 0.1
C=C1CCC2C(C)(CO)C(O)CCC2(C)C1C/C=C1/C(=O)OCC1O (stereo not given) (library stock concentration (final ~1000-fold dilution): 10 mM),NF-kB SEAP reporter activity,RAW-Dual [3]; agonist: LPS (TLR4) 0.1 ug/mL,0.565 ± 0.2
same,NF-kB SEAP reporter activity,RAW-Dual [3]; [4],0.418 ± 0.039
same,NF-kB SEAP reporter activity,RAW-Dual [3]; [5],0.96 ± 0.18
same,NF-kB SEAP reporter activity,RAW-Dual [3]; [6],0.65 ± 0.11
CC1=C(C)C(=O)C(C(CCCCCC(=O)O)c2ccccc2)=C(C)C1=O (stereo not given) (library stock concentration (final ~1000-fold dilution): 10 mM),NF-kB SEAP reporter activity,RAW-Dual [3]; agonist: LPS (TLR4) 0.1 ug/mL,1.13
same,NF-kB SEAP reporter activity,RAW-Dual [3]; [4],1.02
same,NF-kB SEAP reporter activity,RAW-Dual [3]; [5],0.973
same,NF-kB SEAP reporter activity,RAW-Dual [3]; [6],1.1
CC1=C(C)C(=O)C(C(CCCCCC(=O)O)c2ccccc2)=C(C)C1=O (stereo not given),NF-kB SEAP reporter activity,RAW-Dual [2]; [7],0.954
same,NF-kB SEAP reporter activity,RAW-Dual [2]; [8],0.925
CCC1/C=C(\C)CC(C)CC(OC)C2OC(O)(C(=O)C(=O)N3CCCCC3C(=O)OC(/C(C)=C/C3CCC(Cl)C(OC)C3)C(C)C(O)CC1=O)C(C)CC2OC (stereo not given),NF-kB SEAP reporter activity,RAW-Dual [2]; [8],1.3
CCC1/C=C(\C)CC(C)CC(OC)C2OC(O)(C(=O)C(=O)N3CCCCC3C(=O)OC(/C(C)=C/C3CCC(Cl)C(OC)C3)C(C)C(O)CC1=O)C(C)CC2OC (stereo not given) (library stock concentration (final ~1000-fold dilution): 10 mM),NF-kB SEAP reporter activity,RAW-Dual [3]; agonist: LPS (TLR4) 0.1 ug/mL,1.83
same,NF-kB SEAP reporter activity,RAW-Dual [3]; [4],0.465
same,NF-kB SEAP reporter activity,RAW-Dual [3]; [5],0.366
same,NF-kB SEAP reporter activity,RAW-Dual [3]; [6],0.368
CC(C)Oc1ccc(-c2cnc3c(-c4ccnc5ccccc45)cnn3c2)cc1 (library stock concentration (final ~1000-fold dilution): 10 mM),NF-kB SEAP reporter activity,RAW-Dual [3]; agonist: LPS (TLR4) 0.1 ug/mL,2.2
same,NF-kB SEAP reporter activity,RAW-Dual [3]; [4],0.989
same,NF-kB SEAP reporter activity,RAW-Dual [3]; [5],0.975
same,NF-kB SEAP reporter activity,RAW-Dual [3]; [6],0.875
CC(C)Oc1ccc(-c2cnc3c(-c4ccnc5ccccc45)cnn3c2)cc1,NF-kB SEAP reporter activity,RAW-Dual [2]; [7],1.01
same,NF-kB SEAP reporter activity,RAW-Dual [2]; [8],1.08
